The record followed here is the supplement of paper PMC8728848.

This is one part of the list.

Common to all, as to assay: glycan array binding signal (z-score within array); higher = stronger binding
What all share (details): glycan notation: IUPAC condensed, linker removed

Experiment [1] has as its target Gal(b1-4)GlcNAc(b1-2)Man(a1-6)[Man(a1-3)]Man(b1-4)GlcNAc(b1-4)GlcNAc. The method in brief: (§1)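 The Consortium for Functional Glycomics database supplied 3228 glycan arrays, of which those lacking an available protein sequence were dropped. The binding signal, a within-array Z-score, was averaged across arrays of the same protein sequence and across linkers. Negative scores can be read as non-binding.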

Experiment [2] deals with Gal(b1-4)GlcNAc(b1-2)[Gal(b1-4)GlcNAc(b1-4)]Man(a1-3)[Gal(b1-4)GlcNAc(b1-2)Man(a1-6)]Man(b1-4)GlcNAc(b1-4)GlcNAc. The method in brief: as §1
The target of experiment [3] is Gal(b1-4)GlcNAc(b1-2)[Gal(b1-4)GlcNAc(b1-4)]Man(a1-3)[Gal(b1-4)GlcNAc(b1-2)[Gal(b1-4)GlcNAc(b1-6)]Man(a1-6)]Man(b1-4)GlcNAc(b1-4)GlcNAc. In short, it runs like this: as §1
For experiment [4], the target named is Gal(b1-4)GlcNAc(b1-2)[Gal(b1-4)GlcNAc(b1-4)]Man(a1-3)[GlcNAc(b1-4)][Gal(b1-4)GlcNAc(b1-2)Man(a1-6)]Man(b1-4)GlcNAc(b1-4)GlcNAc. In short, it runs like this: as §1
Experiment [5] concerns the target Gal(b1-4)GlcNAc(b1-2)[Gal(b1-4)GlcNAc(b1-4)]Man(a1-3)[GlcNAc(b1-4)][Gal(b1-4)GlcNAc(b1-2)[Gal(b1-4)GlcNAc(b1-6)]Man(a1-6)]Man(b1-4)GlcNAc(b1-4)GlcNAc. The method in brief:
as §1

In experiment [6] the target is Gal(b1-4)GlcNAc(b1-2)[Gal(b1-4)GlcNAc(b1-6)]Man(a1-6)[Gal(b1-4)GlcNAc(b1-2)Man(a1-3)]Man(b1-4)GlcNAc(b1-4)GlcNAc. The method in brief: as §1
Experiment [7] addresses Gal(b1-4)GlcNAc(b1-2)[Gal(b1-4)GlcNAc(b1-6)]Man(a1-6)[Gal(b1-4)GlcNAc(b1-2)Man(a1-3)]Man(b1-4)GlcNAc(b1-4)[Fuc(a1-6)]GlcNAc. The method in brief:
as §1

For experiment [8], the target named is Gal(b1-4)GlcNAc(b1-2)[Gal(b1-4)GlcNAc(b1-6)]Man(a1-6)[GlcNAc(b1-4)][Gal(b1-4)GlcNAc(b1-2)Man(a1-3)]Man(b1-4)GlcNAc(b1-4)GlcNAc. In short, it runs like this: as §1
For experiment [9], the target named is Gal(b1-4)GlcNAc(b1-2)[Gal(b1-4)GlcNAc(b1-6)]Man(a1-6)[GlcNAc(b1-4)][Gal(b1-4)GlcNAc(b1-2)[Gal(b1-4)GlcNAc(b1-4)]Man(a1-3)]Man(b1-4)GlcNAc(b1-4)[Fuc(a1-6)]GlcNAc. In short, it runs like this: as §1
Experiment [10] has as its target Gal(b1-4)GlcNAc(b1-3)Gal(b1-3)GalNAc. The method in brief:
as §1

Experiment [11] addresses Gal(b1-4)GlcNAc(b1-3)Gal(b1-3)GlcNAc. The method in brief:
as §1

Experiment [12] concerns the target Gal(b1-4)GlcNAc(b1-3)Gal(b1-4)Glc. In short, it runs like this:
as §1

Experiment [13] addresses Gal(b1-4)GlcNAc(b1-3)Gal(b1-4)GlcNAc. In short, it runs like this: as §1
For experiment [14], the target named is Gal(b1-4)GlcNAc(b1-3)Gal(b1-4)GlcNAc(b1-2)Man(a1-3)[Gal(b1-4)GlcNAc(b1-3)Gal(b1-4)GlcNAc(b1-2)Man(a1-6)]Man(b1-4)GlcNAc(b1-4)GlcNAc. The method in brief: as §1
The target of experiment [15] is Gal(b1-4)GlcNAc(b1-3)Gal(b1-4)GlcNAc(b1-2)Man(a1-3)[Gal(b1-4)GlcNAc(b1-3)Gal(b1-4)GlcNAc(b1-2)Man(a1-6)]Man(b1-4)GlcNAc(b1-4)[Fuc(a1-6)]GlcNAc. The method in brief:
as §1

The target in experiment [16] is Gal(b1-4)GlcNAc(b1-3)Gal(b1-4)GlcNAc(b1-2)[Gal(b1-4)GlcNAc(b1-3)Gal(b1-4)GlcNAc(b1-6)]Man(a1-6)[Gal(b1-4)GlcNAc(b1-3)Gal(b1-4)GlcNAc(b1-2)Man(a1-3)]Man(b1-4)GlcNAc(b1-4)GlcNAc. The method in brief: as §1
Experiment [17] has as its target Gal(b1-4)GlcNAc(b1-3)Gal(b1-4)GlcNAc(b1-2)[Gal(b1-4)GlcNAc(b1-3)Gal(b1-4)GlcNAc(b1-6)]Man(a1-6)[Gal(b1-4)GlcNAc(b1-3)Gal(b1-4)GlcNAc(b1-2)Man(a1-3)]Man(b1-4)GlcNAc(b1-4)[Fuc(a1-6)]GlcNAc. In short, it runs like this:
as §1

In experiment [18] the target is Gal(b1-4)GlcNAc(b1-3)Gal(b1-4)GlcNAc(b1-3)Gal(b1-4)GlcNAc. The method in brief:
as §1

B1: PX14343A-bvu-539-29-539 (Bacteroides vulgatus) (protein)
chain: DSLTESSSNTFWQTPDDALMALASCYDALQSNQLYNSDQYSLGPLYMDCISDNGGHFNWSGWMEGYDMAMGIHTPSSSIIGSYWKDCYEVISRCNVLIANIDRVDMDASQKAIYQAEAKTIRALMYINLTMTYQDVPFLTAPLTIDEAECEKTDRAAIVAHVMTDLQDAAEVLPQNASSRGHITKGAALSLLGRVALYNEKWDDAIAAYKQVQGLGYSLDPSYAKLFTQSGETSPEIIFAVRYEGPGMSEGAAFNAHWNTPLEAMNGTIDLADAYYCKDGKPTTDTKIAELNGGGGLDVSKPNPAHFENRDPRLYSTLFVPGMLWNGKGGIDTSASNPYANVYGGAAASLSTVYVYKYFDPTDTSNSWDNGQDFYVVRYAEVLLSLAEAMVQKGGYVYSDVTALVNEVRQRADVNMPTVEEVEGTSLSKDELLEVIKHERRVELAFEGLRLFDLYRWKELDKAVANIENERTMYGLAYEARKFNGERDYVWPLPTAELDTNKKLVQHDLWK
For the molecule B1, the “glycan array binding signal (z-score)” value in experiment [1] was 0.476; in experiment [2], -0.195; in experiment [3], -0.34; in [4], -0.094; in experiment [5], 0.474; in experiment [6], -0.132. In addition, the “glycan array binding signal (z-score)” value in experiment [7] is 0.017; in [8] it was -0.018; in [9], 0.087; in [10], -0.161; in experiment [11], -0.239; in experiment [12], -0.192. In addition, the “glycan array binding signal (z-score)” value was -0.46 in [13]; 2.71 in [14]; 0.489 in experiment [15]; 0.282 in experiment [16]; 0.227 in experiment [17]; -0.058 in experiment [18].
